Assay results taken from PubChem BioAssay AID686979 (National Center for Advancing Translational Sciences (NCATS), 2013).
Several values for one entry are separate records, joined by “and”; a condition that tells them apart may be missing. Equal values may be shown once. The whole screen tested about 420,000 compounds, of which about 50,000 (12%) were called active. The inconclusive results got no clear call from the source; some entries with a clear call stand among them for comparison. Calls come from the whole dose curve; as a rule, active = well fitted inhibition curve with a large enough effect; inconclusive = small, poorly fitted or top-dose-only effect; inactive = flat fitted curve, though single readings scatter. No potency is given beside an inconclusive call; the fits are too rough.

Assay: qHTS for Inhibitors of human tyrosyl-DNA phosphodiesterase 1 (TDP1): qHTS in cells in presence of CPT; note: nearly all actives have a fitted effect of over 55% in size
Conditions: chicken DT40 Tdp1-/-;hTDP1 cells + 20 nM CPT, ATP luminescence, 48 h; series mostly up to 46.2 µM
Method in brief: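 Chicken DT40 Tdp1-/- cells complemented with human TDP1, 400 cells/well, exposed to compounds plus 20 nM camptothecin for at least 48 h at 37 C; viability read as ATP content by CellTiter-Glo luminescence.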
Potency is the fitted concentration of half-maximal effect; tags give direction and shape of the fitted curve.

Which Potency does the source give for `COc1ccc(NC(=O)Cn2nc(-c3ccccc3)c3cnc4ccc(C)cc4c32)cc1` here?
Its Potency is inconclusive [inhibitor, single point].

For `O=C(CCNS(=O)(=O)c1ccc(F)cc1)N1CCN(c2ncccn2)CC1`, which Potency is on record?
Its Potency is “inactive”.

Which Potency does the source give for `O=C(N/N=C\C=C\c1ccc2c(c1)OCO2)c1cccnc1` here?
The Potency was inconclusive [inhibitor, single point].

With `CSCC(C)N1CCC(CO)(CCCc2ccccc2)CC1` (stereo not given) as the molecule, how does the Potency read?
Its Potency is “inactive”.

For `CN(C)CC(O)c1ccc(C=Cc2ccc(Cl)cc2)cc1` (stereo not given), which Potency is on record?
The Potency was active: 7.31 µM.

For `CNc1cc(-c2cccc(C(=O)N3CCOCC3)c2)ncn1`, which Potency is on record?
Its Potency is “inactive”.

For `CCCc1ccc(Oc2cn[nH]c2-c2ccc(O)c(C)c2O)cc1`, which Potency is on record?
The Potency was active: 18.4 µM.

For `CC1CCC2(CC1)Nc1ccccc1C(=O)N2c1ccccc1` (stereo not given), which Potency is on record?
Its Potency is “inactive”.

With `Cc1ccc(N2C(=O)CS(=O)(=O)C23C(=O)N(Cc2ccccc2C)c2ccccc23)cc1Cl` (stereo not given) as the molecule, how does the Potency read?
The Potency was inconclusive [inhibitor, partial curve, poor fit].

For `COc1cccc(NC(=O)c2cc(-c3ccncc3)nc3c(C)cc(C)cc23)c1`, which Potency is on record?
The Potency was inconclusive [inhibitor, single point].

For `CNC(=O)[C@H]1O[C@H](n2cnc3c(NCc4cccc(I)c4)nc(Cl)nc32)[C@@H](O)[C@@H]1O`, which Potency is on record?
The Potency was inconclusive [inhibitor, single point].

Which Potency does the source give for `COCC(C)n1c(C)cc(C(=O)COC(=O)c2n[nH]c3ccccc23)c1C` (stereo not given) here?
The Potency was inconclusive [inhibitor, single point].

Which Potency does the source give for `Cc1nn(C)c(C(=O)Sc2cccc(Cl)c2)c1[N+](=O)[O-]` here?
Its Potency is active: 4.61 µM.

With `Cc1ccc(C)c(S(=O)(=O)NCc2ccc(C(=O)N3CCCCCC3)cc2)c1` as the molecule, how does the Potency read?
The Potency was inconclusive [inhibitor, partial curve, poor fit].

For `O=C(COC(=O)c1ccc[nH]c1=O)NCC1CCCO1` (stereo not given), which Potency is on record?
Its Potency is “inactive”.

Which Potency does the source give for `Oc1ccc(/C=N/Nc2ncnc3c2ncn3Cc2ccccc2)cc1O` here?
The Potency was inconclusive [inhibitor, single point].

For `CCOc1ccc(-n2ccnc(SCC(=O)NCc3cccc(OC)c3)c2=O)cc1`, which Potency is on record?
Its Potency is active: 18.4 µM.

Which Potency does the source give for `COc1ccc(NC2=C3CC(C)CC=C3N(c3ccc(OC)cc3)C2=O)cc1` (stereo not given) here?
Its Potency is inconclusive [inhibitor, partial curve].

For `COc1ccc(-n2c(=O)[nH]c3cc(C(=O)NCCc4ccc(Cl)cc4)ccc3c2=O)cc1OC`, which Potency is on record?
Its Potency is active: 11.6 µM and active: 23.1 µM.

With `O=C(CSc1nnc(SCc2ccc(Cl)cc2)s1)N/N=C/c1ccccc1C(=O)O` as the molecule, how does the Potency read?
The Potency was “inactive”.
